The list shows a part of the results. The energies were worked out here from pooled read counts, against the library average; single values are noisy.

Data on 115 sequences can be found in the BET-seq Pho4 binding data (Le et al. 2018).

The target of the assay is T1, Pho4 (S. cerevisiae) (UniProt P07270).
T1 sequence: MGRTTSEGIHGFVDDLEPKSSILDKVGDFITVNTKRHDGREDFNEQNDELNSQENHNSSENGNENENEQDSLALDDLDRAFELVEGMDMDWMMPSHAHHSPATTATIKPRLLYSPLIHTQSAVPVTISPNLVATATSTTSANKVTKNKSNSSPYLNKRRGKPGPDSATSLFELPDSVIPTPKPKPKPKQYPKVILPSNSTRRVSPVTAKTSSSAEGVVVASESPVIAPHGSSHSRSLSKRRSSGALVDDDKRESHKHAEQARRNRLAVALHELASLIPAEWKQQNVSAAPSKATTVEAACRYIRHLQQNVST
As to the kind of experiment: relative binding free energy (BET-seq); higher = weaker binding. The following applies: reference: library average.
With TGTTACACGTGGTAAT, the “relative binding free energy” value was 0.11 kcal/mol.
The same measure for AATAACACGTGTGGAT: 0.14 kcal/mol.
Then ATACACACGTGGGGGG, with -0.25 kcal/mol; and GTACGCACGTGCTGGG, with -0.18 kcal/mol; and TGAATCACGTGGCTGT, with -0.09 kcal/mol.
As to AATGGCACGTGCGCGT, the “relative binding free energy” value was -0.3 kcal/mol.
Then GTGGGCACGTGATTCT, with 0.1 kcal/mol.
The same measure for CTGCGCACGTGAGTGT: 0.04 kcal/mol; for AGTTGCACGTGGGCTA: -0.08 kcal/mol; for GTTGGCACGTGTGAAT: 0.11 kcal/mol.
Then TCTTTCACGTGGGGAA, with 0.28 kcal/mol; and TACTGCACGTGAGTGA, with 0.15 kcal/mol.
In the case of AGGAACACGTGTTGGG, the “relative binding free energy” value was found to be 0.03 kcal/mol.
Then AGGGTCACGTGTTTAC, with 0.04 kcal/mol; and AGTGGCACGTGTGGTA, with -0.01 kcal/mol; and GGCAGCACGTGGTGCT, with -0.07 kcal/mol.
For the sequence AGGTGCACGTGAGCGG, the “relative binding free energy” value was 0.19 kcal/mol.
The same measure for TCTGTCACGTGCGTGG: -0.09 kcal/mol; for TAGTTCACGTGCGGTC: 0.28 kcal/mol; for TGTATCACGTGCGGGG: -0.04 kcal/mol.
The same measure for TTTATCACGTGGGGTC: -0.02 kcal/mol; for ACTTGCACGTGGTGGT: -0.06 kcal/mol.
As for TGGTGCACGTGGATCT, the “relative binding free energy” value came out at 0.01 kcal/mol.
As to CGGCACACGTGGGAGG, the “relative binding free energy” value is -0.15 kcal/mol.
As for GATTACACGTGTTAAG, the “relative binding free energy” value worked out at 0.14 kcal/mol.
The same measure for GGTTGCACGTGAGTTT: 0.36 kcal/mol; for TCTCTCACGTGTATTT: 0.19 kcal/mol.
The same measure for AGCGGCACGTGGTTTC: -0.08 kcal/mol; for GTTTTCACGTGGAGTT: 0.32 kcal/mol; for TTGGTCACGTGGCCAG: 0.09 kcal/mol.
Then GGAGTCACGTGAGTAT, with 0.38 kcal/mol.
For TAAGGCACGTGGGGGT, the “relative binding free energy” value was -0.19 kcal/mol.
Then GTATACACGTGGGCAT, with -0.03 kcal/mol.
GGTTACACGTGAGGTA: the “relative binding free energy” value came out at 0.38 kcal/mol.
The same measure for AAAGTCACGTGGCTAT: 0.24 kcal/mol.
For TGGGTCACGTGTGGGA, the “relative binding free energy” value was determined as 0.17 kcal/mol.
The same measure for AAGGCCACGTGTTTGT: -0.09 kcal/mol.
Then GTGATCACGTGCTGGG, with 0.22 kcal/mol.
The same measure for GCATTCACGTGGTGTA: 0.16 kcal/mol; for TTAGCCACGTGCGTGT: -0.12 kcal/mol.
With TATTACACGTGATCTT, the “relative binding free energy” value was determined as 0.12 kcal/mol.
For the sequence TCACGCACGTGTTGTG, the “relative binding free energy” value was -0.07 kcal/mol.
The same measure for GGTCGCACGTGGTTGC: -0.07 kcal/mol.
Then AGTGGCACGTGTTCGC, with -0.1 kcal/mol.
For the sequence GGGGCCACGTGAAATT, the “relative binding free energy” value turned out to be 0.29 kcal/mol.
On to GAGTACACGTGAAGGT, for which the “relative binding free energy” value worked out at 0.24 kcal/mol.
Then TAGTGCACGTGTGCGC, with -0.03 kcal/mol.
For the sequence ACTATCACGTGTGTCT, the “relative binding free energy” value was 0.3 kcal/mol.
For GTCAGCACGTGTTAGT, the “relative binding free energy” value is 0.04 kcal/mol.
Then CTTTTCACGTGTGTCT, with 0.2 kcal/mol.
The same measure for TGGGGCACGTGGGCGG: -0.2 kcal/mol; for GACAACACGTGAGGGG: 0.26 kcal/mol.
Take GTCTACACGTGATGTT: the “relative binding free energy” value was 0.28 kcal/mol.
Regarding GTGTACACGTGGTCGT, the “relative binding free energy” value turned out to be 0.19 kcal/mol.
Then TTCGGCACGTGTGTTG, with -0.03 kcal/mol.
As for TATTACACGTGGTACG, the “relative binding free energy” value was -0.05 kcal/mol.
The same measure for CTGAGCACGTGCGGGG: -0.19 kcal/mol; for TTGACCACGTGTGGTG: 0.02 kcal/mol; for TCGGGCACGTGGAAGG: -0.13 kcal/mol.
For TCATACACGTGAGGTT, the “relative binding free energy” value is 0.19 kcal/mol.
As for TTTGACACGTGATGGT, the “relative binding free energy” value came to 0.15 kcal/mol.
The same measure for GTTGTCACGTGATGAA: 0.22 kcal/mol; for GGAAGCACGTGTAGGG: -0.2 kcal/mol.
Then GCTGTCACGTGTACGG, with 0.16 kcal/mol; and GTTAGCACGTGTTTTA, with 0.02 kcal/mol; and CTATGCACGTGTAGGT, with -0.08 kcal/mol.
The same measure for TAAAACACGTGGAGGG: 0.04 kcal/mol; for GTTGACACGTGGCGGA: 0.13 kcal/mol.
As to TATGACACGTGCTTGT, the “relative binding free energy” value was -0.14 kcal/mol.
The same measure for TTACTCACGTGGTTGT: 0.13 kcal/mol.
Then AATGTCACGTGTCATA, with 0.14 kcal/mol; and TTCGGCACGTGATGTT, with 0 kcal/mol; and AGGTACACGTGGGAGT, with 0 kcal/mol.
The same measure for GTCTACACGTGGGTTT: 0 kcal/mol.
Regarding TCGGACACGTGTAGTG, the “relative binding free energy” value worked out at 0.04 kcal/mol.
In the case of TGTTGCACGTGGGATA, the “relative binding free energy” value was -0.05 kcal/mol.
Then TGAGGCACGTGGCGTT, with -0.15 kcal/mol; and GTGAGCACGTGGGCGA, with -0.22 kcal/mol.
The same measure for TTAGTCACGTGGAAGT: 0.15 kcal/mol; for TGGGGCACGTGCGAAG: -0.19 kcal/mol; for AGTGTCACGTGATGTA: 0.11 kcal/mol.
Then TTTGACACGTGATTTA, with 0.05 kcal/mol.
Regarding AGTGTCACGTGGGCTA, the “relative binding free energy” value is -0.11 kcal/mol.
With TGGAGCACGTGTTAGT, the “relative binding free energy” value is 0.03 kcal/mol.
Then TGAGGCACGTGTGAAG, with -0.07 kcal/mol.
The same measure for AGAGACACGTGGAGAG: 0.09 kcal/mol; for CTTGTCACGTGAGAGG: 0.24 kcal/mol.
The same measure for ATGTCCACGTGTAAGG: 0.21 kcal/mol.
For the sequence GGGCTCACGTGTGAGG, the “relative binding free energy” value came to 0.28 kcal/mol.
For the sequence ATTTACACGTGGGCTT, the “relative binding free energy” value turned out to be 0.03 kcal/mol.
In the case of CGGTACACGTGGAATT, the “relative binding free energy” value came out at 0.29 kcal/mol.
The same measure for AAAGACACGTGGGTGG: -0.21 kcal/mol; for TTTTCCACGTGGGCAT: 0.01 kcal/mol; for TAGGGCACGTGTTCTG: -0.16 kcal/mol.
As for TAAGACACGTGTGTGG, the “relative binding free energy” value was -0.01 kcal/mol.
Take GTGTTCACGTGAATGC: the “relative binding free energy” value is 0.57 kcal/mol.
Then GTTTTCACGTGATGTG, with 0.41 kcal/mol.
The same measure for TCTGGCACGTGGCAGG: -0.13 kcal/mol; for ACGTACACGTGGGGCG: -0.08 kcal/mol; for CGTACCACGTGGGTTT: -0.09 kcal/mol.
The same measure for AAATTCACGTGTGTGA: 0.22 kcal/mol.
With GGTTGCACGTGTAGCC, the “relative binding free energy” value was found to be 0.07 kcal/mol.
Then TAGGTCACGTGTGGAC, with 0.11 kcal/mol; and AGCGGCACGTGAAGGT, with 0.2 kcal/mol.
Then GACGGCACGTGGGTGA, with -0.12 kcal/mol; and TGGTTCACGTGCAAGT, with 0.23 kcal/mol.
The same measure for TTTCTCACGTGCGTTG: 0.07 kcal/mol; for GGACACACGTGAGGTT: 0.24 kcal/mol; for TTGTTCACGTGTAGCG: 0.25 kcal/mol.
For ACATTCACGTGGTTGT, the “relative binding free energy” value stood at 0.21 kcal/mol.
The same measure for ATATGCACGTGGAGTT: -0.05 kcal/mol; for CAGGGCACGTGATTTG: -0.16 kcal/mol; for AGGTGCACGTGCACGG: -0.08 kcal/mol.
The same measure for TTGACCACGTGTGGGT: -0.14 kcal/mol; for TCGATCACGTGGATGT: 0.22 kcal/mol.
